Experimental data reported in PubChem BioAssay AID686979 (National Center for Advancing Translational Sciences (NCATS), 2013).
In all, about 420,000 compounds went through this assay and about 50,000 (12%) were called active. The shares of active, inactive and inconclusive entries below differ from those in the screen. Calls come from the whole dose curve; as a rule, active = well fitted inhibition curve with a large enough effect; inconclusive = small, poorly fitted or top-dose-only effect; inactive = flat fitted curve, though single readings scatter. No potency is given beside an inconclusive call; the fits are too rough.

Assay: qHTS for Inhibitors of human tyrosyl-DNA phosphodiesterase 1 (TDP1): qHTS in cells in presence of CPT; note: nearly all actives have a fitted effect of over 55% in size
Details: chicken DT40 Tdp1-/-;hTDP1 cells + 20 nM CPT, ATP luminescence, 48 h; activity change, negative = growth inhibition: at 46.2 µM (top of the series) unless noted
How it was run: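 Chicken DT40 Tdp1-/- cells stably complemented with human TDP1 were seeded at 400 cells/well in medium containing 20 nM camptothecin, exposed to pin-transferred compounds, and grown at 37 °C for at least 48 hr. Viability was read as ATP luminescence.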
% is set by controls: 0 for no effect and ±100 for the full control effect; potency is the fitted concentration of half-maximal effect; tags give direction and shape of the fitted curve.

| Compound | Potency | activity change, negative = growth inhibition |
| --- | --- | --- |
| COc1ccc(CCNc2nc(C)c(C(C)=O)s2)cc1OC | inconclusive [inhibitor, single point] | – |
| C=CCn1c(=O)[nH]c2cc(C(=O)N3CCN(c4cccc(Cl)c4)CC3)ccc2c1=O | active: 9.2 µM | – |
| COc1ccc(C2C3=C(CCCC3=O)Nc3nc(C(F)(F)F)nn32)cc1OC (centres undefined) | – | inactive: -1.69% |
| Cc1cc(C)c2nc(N(CCN(C)C)C(=O)c3ccc(S(=O)(=O)N(C)CC4CCCO4)cc3)sc2c1 (centres undefined) | inconclusive [inhibitor, single point] | – |
| COc1ccc(CN2C(=O)c3ccccc3C2c2nnnn2Cc2ccccc2)cc1 (centres undefined) | inconclusive [inhibitor, single point] | – |
| CC(=O)OC[C@@H]1CN(Cc2ccccc2)C[C@H](n2cnc3c(N(C)C(C)C)ncnc32)O1 | inconclusive [inhibitor, partial curve, poor fit] | – |
| COCCN(C(=O)COC(=O)c1ccc2c(c1)OCCO2)c1c(N)n(Cc2ccccc2)c(=O)[nH]c1=O | – | inactive: 0.243% |
| Cc1ccc(C(=O)N/C(=C/c2ccccc2)C(=O)NC(Cc2ccccc2)C(=O)O)cc1 (centres undefined) | – | inactive: -18.7% |
| COC(=O)c1ccc(CNC(=O)COC(=O)/C=C/c2cccc(OC)c2)cc1 | inconclusive [inhibitor, single point] | – |
| O=C(COc1ccc([N+](=O)[O-])cc1)N(Cc1ccccc1)Cc1ccccc1 | inconclusive [inhibitor, partial curve] | – |
| CN(CC(=O)Nc1cccc(F)c1)C(=O)c1cn(-c2ccccc2)nc1-c1ccc(Cl)cc1 | inconclusive [inhibitor, single point] | – |
| COc1cccc(-c2sc3ccc(OC)cc3c2C#CC2(O)CCCCC2)c1 | inconclusive [inhibitor, single point] | – |
| CCOC(=O)C1CCCN(C(=O)CCCn2nnnc2CN2CCC(C)CC2)C1 (centres undefined) | – | inactive: -11.9% |
| Nc1nn2c(-c3ccccc3)cc(=O)[nH]c2c1N=Nc1ccc(O)cc1 | inconclusive [inhibitor, single point] | – |
| Cn1c(=O)n(CCN2CCOCC2)c(=O)c2c1nc1n2CCN1c1ccc(Oc2ccccc2)cc1 | inconclusive [inhibitor, single point] | – |
| Cc1csc(NC(=O)c2cnc3ccccc3n2)n1 | inconclusive [inhibitor, single point] | – |
| COc1ccc(-c2csc(NC(=O)c3ccccc3C(=O)O)n2)cc1 | – | inactive: -0.295% |
| Cc1cccc(NS(=O)(=O)c2ccc(C(=O)N3CCCCCC3)cc2)c1C | inconclusive [inhibitor, partial curve] | – |
| O=C(Nc1c(C(=O)N2CCN(c3ccc(F)cc3)CC2)oc2ccccc12)c1ccco1 | active: 16.4 µM | – |
| COc1ccc(-c2cnc(SCC(=O)Nc3ccc4c(c3)OCO4)n2Cc2ccco2)cc1 | active: 18.4 µM | – |
| Cc1ccc(-c2nnc(Nc3ccc(C(N)=O)cc3)c3ccccc23)cc1S(=O)(=O)N1CCCCC1 | inconclusive [inhibitor, partial curve] | – |
| CCOC(=O)[C@H]1[C@H]2COc3ccc(Br)cc3[C@@H]2N2C(=O)CN(Cc3ccc(C)cc3)C(=O)[C@@]12C | inconclusive [inhibitor, single point] | – |
| Cc1cc(C)c(NS(=O)(=O)c2ccc(NC(=O)c3cccs3)cc2)c(C)c1 | – | inactive: -4.72% |

| Compound | Potency | activity change, negative = growth inhibition |
| --- | --- | --- |
| c1coc(CNc2c3c(nc4ncnn24)CCCC3)c1 | inconclusive [inhibitor, partial curve] | – |
| CCC(=O)NC(=S)Nc1ccc(NC(=O)c2cccc([N+](=O)[O-])c2C)cc1 | inconclusive [inhibitor, single point] | – |
| CCCOC(=S)N/C(=N\S(=O)(=O)c1ccccc1)c1ccccc1 | inconclusive [inhibitor, single point] | – |
| CCn1cc(C(=O)OCC(=O)c2cc(C)n(-c3cccc(C(F)(F)F)c3)c2C)c(=O)c2ccc(C)nc21 | inconclusive [inhibitor, single point] | – |
| COc1ccc(CCNC(=O)c2ccc(CS(=O)(=O)c3ccc(C)cc3)o2)cc1OC | inconclusive [inhibitor, single point] | – |
| CCC(=O)Nc1ccc(OCC2CCCO2)cc1 (centres undefined) | – | inactive: 22.6% |
| CN(C)c1ccc(NC(=O)Nc2nc(C(N)C3CCCCC3)cs2)cc1 (centres undefined) | active: 18.4 µM | – |
| CCc1ccc(NC(=O)CSC2=Nc3ccccc3C3=NC(CCC(=O)NCc4cccs4)C(=O)N23)cc1 (centres undefined) | inconclusive [inhibitor, single point] | – |
| CC(=O)N1CCN(C(=O)c2cc3c(s2)CCC(C)C3)CC1 (centres undefined) | – | inactive: -23% |
| CCCc1nn2c(=O)cc(COC(=O)c3ccc(NC(=O)c4cccs4)cc3)nc2s1 | inconclusive [inhibitor, single point] | – |
| Cn1c(=O)c2c(-c3ccccc3)n(-c3ccc(N)cc3)cc2n(C)c1=O | inconclusive [inhibitor, single point] | – |
| CCCS(=O)(=O)NC(=O)C1(C)CCN(C(=O)c2ccc(C#N)cc2)C1 (centres undefined) | – | inactive: 0.917% |
| CN(C)S(=O)(=O)c1cccc(NC(=O)CSc2ncnc3ccccc23)c1 | active: 20.6 µM | – |
| Cc1cccc(-n2ccnc2SCC(=O)Nc2ccccc2C(F)(F)F)c1 | inconclusive [inhibitor, single point] | – |
| CCc1ccc(-n2c(C)nc3cc(C(=O)NCc4cccnc4)ccc32)cc1 | inconclusive [inhibitor, single point] | – |
| CN(C)CCN1CCN(C2CN(C3CCCCC3)S(=O)(=O)C2)CC1 (centres undefined) | inconclusive [inhibitor, full curve] | – |
| CCCn1c(SCC(=O)N(C)C2CCS(=O)(=O)C2)nc2sc3c(c2c1=O)CCC3 (centres undefined) | inconclusive [inhibitor, full curve, poor fit] | – |
| O=C(/C=C\c1ccco1)Oc1cccc2cccnc12 | active: 0.58 µM | – |
| COc1ccc(S(=O)(=O)NC(C)C)cc1C(=O)NC1CCCCC1 | – | inactive: 7.46% |
| COC(CN(C)C(=O)C1CCC(CNS(=O)(=O)c2ccc(C)cc2)CC1)OC (centres undefined) | inconclusive [inhibitor, single point] | – |
| COc1ccc(-n2c(C)c([N+](=O)[O-])c3ccc(O)c(CN(C)C)c32)cc1 | inconclusive [inhibitor, partial curve, poor fit] | – |
| COc1ccccc1C1C=C(c2ccc(C)cc2)Nc2nnnn21 (centres undefined) | active: 18.4 µM | – |
| COc1cccc2[nH]c3c(N4CCc5ccccc5C4)ncnc3c12 | inconclusive [inhibitor, single point] | – |

| Compound | Potency | activity change, negative = growth inhibition |
| --- | --- | --- |
| Cc1sc2ncnc(N3CCC(C(=O)Nc4ccc(F)cc4Cl)CC3)c2c1C | inconclusive [inhibitor, single point] | – |
| CC(C)(CO)NC(=O)C12CC3CC(CC(Br)(C3)C1)C2 | – | inactive: 10.9% |
| Cc1ccc2c(c1)N(C(=O)CCC(=O)NCC(C)c1ccccc1)CC(C)O2 (centres undefined) | inconclusive [inhibitor, single point] | – |
| CCOc1ccccc1CNC(=O)c1ccc(NC(=O)C2=CSCCO2)cc1 | inconclusive [inhibitor, single point] | – |
| CCOC(=O)[C@H]1O[C@@H]1C(=O)N[C@@H](CC(C)C)C(=O)NCCC(C)C | inconclusive [inhibitor, single point] | – |
| CCC(=O)N1CCc2cc(S(=O)(=O)NC(C(=O)NCc3ccc(OC)cc3)C(C)C)ccc21 (centres undefined) | – | inactive: -17.5% |
| CC1=Nc2cc(C(=O)NCCCN3CCN(C)CC3)ccc2Sc2ccc(C)cc21 | inconclusive [inhibitor, single point] | – |
| CN(Cc1ccccc1)C(=O)NC1CCCCC1 | – | inactive: -5.37% |
| COc1ccccc1N(C)S(=O)(=O)c1ccc(C(=O)Nc2nc(C)c(C(C)=O)s2)cc1 | inconclusive [inhibitor, single point] | – |
| Cc1ccc(COc2ccccc2C(=S)N2CCCC2)cc1 | inconclusive [inhibitor, single point] | – |
| O=C(COC(=O)c1ccccc1C(=O)c1ccc(Cl)cc1)NCc1ccccc1 | inconclusive [inhibitor, single point] | – |
| COC(=O)c1cc(Br)c(N)cc1OC | – | inactive: -5% |
| Cc1nnc(SC(C)C(=O)Nc2c(C)n(C)n(-c3ccccc3)c2=O)n1N (centres undefined) | – | inactive: -0.43% |
| COc1ccc(C(=O)N/C(=C\c2ccccc2)C(=O)Nc2ccccc2C(=O)O)cc1 | – | inactive: -2.51% |
| COc1ccc(C2CCCN2C(=S)Nc2cccc(C)c2)cc1OC (centres undefined) | inconclusive [inhibitor, single point] | – |
| CCOC(=O)c1cc2c(=O)n3ccccc3nc2n(Cc2ccco2)c1=NC(=O)c1cc(C)cc(C)c1 | active: 1.3 µM | – |
| COC(=O)c1ccc(NC(=O)c2nn(C)c3c2CS(=O)(=O)c2ccccc2-3)cc1 | – | inactive: -14.4% |
| CCOC(=O)Cc1csc(NC(=O)COC(=O)/C=C/c2ccc(OC)cc2)n1 | – | inactive: -6.19% |
| CCn1c(CSc2nccn2C)nc2cc(C(=O)O)ccc21 | – | inactive: -0.0277% |
| Cc1c(C(=O)N2CCOCC2)[nH]c2c1C(=O)CC(c1ccc(Cl)cc1)C2 (centres undefined) | – | inactive: -26% |
| O=C(NCc1cccc2ccsc12)c1cccs1 | inconclusive [inhibitor, partial curve] | – |
| O=c1c(Cl)c(N/N=C/c2ccc(Cl)cc2)cnn1-c1ccccc1 | inconclusive [inhibitor, single point] | – |
| CN(C(=O)COc1ccccc1C(=O)NCCOc1ccccc1)c1ccccc1 | active: 2.31 µM | – |
